The supplement of paper PMC10126150
Values marked as one replicate rest on one cluster of the flow cell; about a third of the high ones do not repeat.

What follows are sequences tested on ATP (assay: switch fluorescence ratio, 500 uM ATP over buffer (Cy3 cluster intensity, sum of 5 cycles each) (fold (ratio)); higher = stronger signal-on switching upon ATP binding; sequences stand for … in TCGTCGGCAGCGTCAGATGTGTATAAGAGACAGTTTTTTTTTTTTTTTTTTTTTTTTT…TC). Details: aptamer strand: ATP DNA aptamer (quencher-CACCTGGGGGAGTATTGCGGAGGAAGG + anchor), 100 nM annealed; ATP concentration: 500 uM; one replicate.
Method in brief: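 Exposure to 500 uM ATP lasted 15 min at 22 °C before imaging, and a selection-buffer image was taken beforehand, for Cy3-labelled switching-strand clusters on a modified Illumina MiSeq flow-cell annealed to 100 nM quencher-labelled ATP aptamer. Five buffer/ATP cycles were run with NaOH stripping and re-annealing between them. The fluorescence ratio per cluster is summed target-cycle over summed buffer-cycle Cy3 intensity, averaged per switch-domain sequence. Clusters outside 100-1000 RFU were excluded.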
CCGGCGATG was tested, and the switch fluorescence ratio was 1.04. With CCGGCGGGTC the switch fluorescence ratio was 1.04. In the case of CCGGCTACGA, the switch fluorescence ratio was 1.31. In the case of CCGGCTATTG, the switch fluorescence ratio was 1.02. CCGGCTTATG was tested, and the switch fluorescence ratio was 1.01. In the case of CCGGGAAAGG, the switch fluorescence ratio was 1.04. In the case of CCGGGAACCG, the switch fluorescence ratio was 1.04. Sequence CCGGGACACG has a switch fluorescence ratio of 1.06. Sequence CCGGGACCGT has a switch fluorescence ratio of 1. CCGGGACGTG gave a switch fluorescence ratio of 0.978. CCGGGAGGCC gave a switch fluorescence ratio of 1.09. CCGGGGCCGT was tested, and the switch fluorescence ratio was 0.993. Work on CCGGGGGAA yielded a switch fluorescence ratio of 1.03. CCGGGGTAAC gave a switch fluorescence ratio of 1.38. Work on CCGGGTCAG yielded a switch fluorescence ratio of 1.08. Work on CCGGGTTAA yielded a switch fluorescence ratio of 1.06. CCGGGTTCAA was tested, and the switch fluorescence ratio was 1.22. In the case of CCGGGTTCGT, the switch fluorescence ratio was 0.999. Work on CCGGGTTGT yielded a switch fluorescence ratio of 1.05. Work on CCGGTTGCAG yielded a switch fluorescence ratio of 1.33. Work on CCGTAATTAT yielded a switch fluorescence ratio of 2.32. CCGTAGCGCG gave a switch fluorescence ratio of 1.86. CCGTCATAAT gave a switch fluorescence ratio of 1.33. In the case of CCGTCCCCG, the switch fluorescence ratio was 1.37. CCGTCCTGCT showed a switch fluorescence ratio of 1.03. CCGTCGAAGG showed a switch fluorescence ratio of 1.09. CCGTCTAGGC gave a switch fluorescence ratio of 1.06. In the case of CCGTCTGGCC, the switch fluorescence ratio was 1.05. For CCGTGAATGT, the switch fluorescence ratio was 1.23. With CCGTGAGGCT the switch fluorescence ratio was 1.08. For CCGTGCGTTC, the switch fluorescence ratio was 2.52. CCGTGCTTTA was tested, and the switch fluorescence ratio was 1.24. Sequence CCGTGTAAAC has a switch fluorescence ratio of 2.04. For CCGTGTATAG, the switch fluorescence ratio was 1.73. CCGTTAAAAC showed a switch fluorescence ratio of 1.35. For CCGTTAACAC, the switch fluorescence ratio was 3.48. With CCGTTAAGTT the switch fluorescence ratio was 1.02. In the case of CCGTTCCCCG, the switch fluorescence ratio was 1.47. Work on CCGTTCTCAC yielded a switch fluorescence ratio of 1.4. Sequence CCGTTGCCCG has a switch fluorescence ratio of 1.05. In the case of CCTAACCGAC, the switch fluorescence ratio was 2.34. Work on CCTAACGATT yielded a switch fluorescence ratio of 1. CCTAACTTT gave a switch fluorescence ratio of 0.954. For CCTAAGATAC, the switch fluorescence ratio was 2.26. CCTAAGGACT was tested, and the switch fluorescence ratio was 1.01. In the case of CCTAAGGTCA, the switch fluorescence ratio was 1.01. CCTAAGGTGG gave a switch fluorescence ratio of 1.06. CCTAAGTACC gave a switch fluorescence ratio of 1.31. With CCTAAGTCTA the switch fluorescence ratio was 1.04. For CCTAAGTTGC, the switch fluorescence ratio was 1.16. In the case of CCTAATATGC, the switch fluorescence ratio was 1.32. With CCTAATGTCG the switch fluorescence ratio was 1. CCTACCGAGC showed a switch fluorescence ratio of 2.91. For CCTACGGTTG, the switch fluorescence ratio was 1.53. CCTAGAAGAC showed a switch fluorescence ratio of 1.9. In the case of CCTAGCGCT, the switch fluorescence ratio was 1.24. For CCTAGCGTTT, the switch fluorescence ratio was 1.08. With CCTAGGTGGA the switch fluorescence ratio was 1.48. In the case of CCTAGTAGCT, the switch fluorescence ratio was 1.09. Work on CCTATGGTAC yielded a switch fluorescence ratio of 3.59. CCTATGGTTA was tested, and the switch fluorescence ratio was 1.04. Sequence CCTATTAAGA has a switch fluorescence ratio of 0.979. Work on CCTATTCAAC yielded a switch fluorescence ratio of 1.06. Sequence CCTATTGTTG has a switch fluorescence ratio of 0.959. CCTCAATAGT gave a switch fluorescence ratio of 3.16. In the case of CCTCACTCTT, the switch fluorescence ratio was 1.18. For CCTCAGGCGT, the switch fluorescence ratio was 2.1. In the case of CCTCAGTGGT, the switch fluorescence ratio was 1.02. For CCTCCAGTTT, the switch fluorescence ratio was 1.41. CCTCCTGTTT showed a switch fluorescence ratio of 1.92. With CCTCCTTCTG the switch fluorescence ratio was 1.12. CCTCGGACGG showed a switch fluorescence ratio of 1.14. For CCTCGGACTG, the switch fluorescence ratio was 1.15. For CCTCGTGTCG, the switch fluorescence ratio was 1.04. CCTCGTTCTG gave a switch fluorescence ratio of 1.03. In the case of CCTCTAGAAT, the switch fluorescence ratio was 1.72.
